Measured values from the supplement of paper PMC11417369.
± gives the standard deviation of the averaged measurements. The list shows a part of the results.

system: PfAP2-EXP AP2 domain (GST-tagged); test: gcPBM binding intensity (ln(normalized median fluorescence intensity)); higher = stronger DNA binding
Outline: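 The highest Masliner-normalised natural-log median intensity across replicate spots of either probe orientation is reported as binding intensity. GST-tagged P. falciparum DNA-binding domains expressed in E. coli were applied for 1 h to an Agilent 4 × 180k array of primer-extended double-stranded 36-bp intergenic genomic probes plus negative controls, and bound protein was detected with Alexa488 anti-GST antibody and scanned at 488 nm.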

Row | Sequence | gcPBM binding intensity (ln)
1 | ACATATAATAAAATAGTGCATTGTTAGTTTTATATA | 8.565 ± 0.064
2 | TATATTTACTTATATGCACACATAAATGTGAATTAT [CACACA_site9258] | 8.37 ± 0.092
3 | TATTATATAATATACTGTACAATATCCATTATTTAC [XGTACX_site7091] | 8.6 ± 0.39
4 | ATTCATTCCATACTTTAACACACAAATATATTTAAT [CACACA_site7930] | 8.68 ± 0.34
5 | TTTATACAAATATGTACACACTAAATATATATTATG [CACACA_site4413] | 8.52 ± 0.3
6 | AAAGGAAAAGTTGACTGTACATAAGTAAAAAATAAT [XGTACX_site788] | 9.15 ± 0.42
7 | AAAAAAAAAAAAAACACACAGAAATATATATATATT [CACACA_site832] | 8.54 ± 0.56
8 | TTTTTGTAACCGATTCTGCACTGAGAAGCACATATA | 8.51 ± 0.24
9 | TACACATACAGACATACACACATACCCATATACTCA [CACACA_site5037] | 8.57 ± 0.62
10 | GGCATATATATATGCACACATACATATATACATGTG [CACACA_site3859] | 8.82 ± 0.11
11 | GAAATTACTTTATAAACACACATTTATTTTATTTTA [CACACA_site7007] | 8.45 ± 0.24
12 | TTATTTACAAAACAAATCAAAATATCCAAAAGAATA [CACACA_negctrl_site1789] | 8.22 ± 0.46
13 | ATATTATACGCATATGTGCGCATACATTTTTTTGCA [GTGCAC_site9540] | 8.68 ± 0.18
14 | ATGTTATTAATAATTGCACACATTTTTTTTTTTTTT [CACACA_site3920] | 8.73 ± 0.5
15 | TCATATTTATATAAATGTACTTAATTGGTTTCTTTA [XGTACX_site7848] | 8.46 ± 0.41
16 | AGATTGTAAGTAAACACACACACATATATATGTATA [CACACA_site675] | 8.66 ± 0.4
17 | ATTATATAGAATTGTACATGCGAATTGTATAACGAT [TGCATGCA_site125] | 9.31 ± 0.57
18 | TATAAACGTATAATATGTACACACACATATATACAA [XGTACX_site1686] | 8.43 ± 0.32
19 | TATTTTTTTTTTTTTTTTTTTTTTATATATACATAT [CACACA_negctrl_site23] | 8.03 ± 0.45
20 | AAAAAAAAAAAAAAAAATATATTTATGAAATAAAAA [TGCATGCA_negctrl_site262] | 8.405 ± 0.078
21 | AATGGATATTTCTTTATATATATCTTATTTGATTAT [XGTACX_negctrl_site284] | 8.23 ± 0.25
22 | TTTCTATTCCATTCAACACACAAAAATGTATGCTTT [CACACA_site1072] | 8.66 ± 0.37
23 | TTTTTCTTTCTATTTATCAATATTAAAAAAAAAAAA [CACACA_negctrl_site1629] | 8.17 ± 0.49

Row | Sequence | gcPBM binding intensity (ln)
24 | TTTTTATAATGATACATATATTATTTTATTCTTAAT [CACACA_negctrl_site124] | 8.15 ± 0.37
25 | TTACTCATGAAAGATACACACATTCGTTATTTATAT [CACACA_site7517] | 8.52 ± 0.39
26 | TTTTTTCAAATTTTCTTTTTTCTTTTGTTTTTTTTG [CACACA_negctrl_site380] | 8.39 ± 0.54
27 | TATACATGTATATATTGTACATATGTTTTTTTTACA [XGTACX_site3300] | 8.86 ± 0.57
28 | TATTTATAAACATACGCACACATTAATATATATATA [CACACA_site9314] | 9.47 ± 0.11
29 | TAAATTATTATCCCCTCACACACAAAAATAAAAAGA [CACACA_site2886] | 9.12 ± 0.69
30 | CACAAAATAAATTAAACACACAACATCATATATGTA [CACACA_site846] | 8.59 ± 0.47
31 | GAAGAAGTTTAAAAAGCACACAAAAAAAAAAAAAAA [CACACA_site9088] | 8.21 ± 0.52
32 | ATTATTATTAATCTTGTGCACATATATTTTAATTAG | 9.035 ± 0.078
33 | AGATATTCTACTATGTGTACATATATATATATAATT [XGTACX_site5060] | 8.65 ± 0.24
34 | CTTGTAGATATAAAATGTACAAAAATAAATTGCACA [XGTACX_site4409] | 8.35 ± 0.13
35 | GTACAATCATATACTACATGCAGTTTTTTTTATTGA [TGCATGCA_site230] | 9.21 ± 0.27
36 | AAATAAATACATAATACATGCATATTTAATATATAG [TGCATGCA_site135] | 8.59 ± 0.2
37 | TTTTCTTTTTCTTGTACACACATAATATGGATGAAA [CACACA_site808] | 8.81 ± 0.5
38 | AATTTTTTTTAATGATGTACTTTTTGAAAATAAACT [XGTACX_site4221] | 8.36 ± 0.18
39 | ATATATATATATATTTATTCATATATTTTTTGTCTT [TGCATGCA_negctrl_site58] | 9.99 ± 0.12
40 | TTTTTATTTTTTCAGTGTACATTTAAATTATCTTAT [XGTACX_site3905] | 8.77 ± 0.42
41 | TAAAGAAACGCATCGACGCACACTACAAAATAAAAA [CACACA_site1348] | 8.57 ± 0.61
42 | TATAAATATCTGAATTGTACAGGTGAAAAAAAAAAT [XGTACX_site1867] | 8.88 ± 0.51
43 | TTTTTTATTATTATTATTTTTTATGTATAATAATGT [CACACA_negctrl_site631] | 8.34 ± 0.45
44 | AAATAATTTATGCATACACACATATATATATATATA [CACACA_site4020] | 10.1 ± 0.61
45 | TTACTTTTTTTTTTATGTACTTATATTTTTTACACT [XGTACX_site3503] | 8.81 ± 0.6
46 | TATGAATACATTTGTTGTACTTAAATTTCCTTTATT [XGTACX_site5374] | 8.54 ± 0.31

Row | Sequence | gcPBM binding intensity (ln)
47 | TAGATATATAAATACACACACATACACAAAAAAAAA [CACACA_site7652] | 8.62 ± 0.56
48 | ATATATATATATATATATATAATAAAAGATCATTTA [XGTACX_negctrl_site371] | 10.2 ± 0.26
49 | ATAATAAAAAGAAAAAGTACAAATGATTATGTTTGA [XGTACX_site3615] | 9.27 ± 0.49
50 | CAAGTATTATATTGCGCATGCAAAGAAGGACACAAA [TGCATGCA_site1024] | 9.78 ± 0.13
51 | TTATCTAGTACATACATACACACAACCATGTTATGA [CACACA_site3988] | 8.47 ± 0.36
52 | TTCTACATGAAGTTATAAATTAATATTTTAATTTAT [XGTACX_negctrl_site134] | 8.13 ± 0.37
53 | AATAAATAAATAAGTACACACATATAAATATAAATA [CACACA_site6271] | 8.69 ± 0.27
54 | TACTTTATTTTTTATACACACACAATATGTATATAT [CACACA_site9184] | 8.71 ± 0.36
55 | GTATTTCTTTAATATACACACACCAAAACAAAAAAA [CACACA_site579] | 8.81 ± 0.4
56 | TGTTATTCTGCATATACACACAAATAACAATTTAAA [CACACA_site6943] | 8.49 ± 0.33
57 | TAAGATATAAAAAATGTGCACATTAAAGTATTAATT | 8.71 ± 0.3
58 | TCTTATGATGGAATGTTAAATATTACATTTTGTTTA [TGCATGCA_negctrl_site503] | 8.28 ± 0.27
59 | CAAAAAAAAAAAAAAACACACATTAAATTATAAAGA [CACACA_site2613] | 8.36 ± 0.64
60 | TTTATATAGAAACACACACACAAAAAAAAAAAAAAA [CACACA_site2646] | 8.24 ± 0.52
61 | TTACAAAAAAAAAGGCGCGGATGGGGGCAATAGCAA [CACACA_negctrl_site238] | 9.14 ± 0.28
62 | ATGAACATCCAATATACACACATATATATTTATATT [CACACA_site829] | 8.58 ± 0.38
63 | TAATGTTTCAAAATTTAATATACTACAAATATTATA [TGCATGCA_negctrl_site336] | 8.01 ± 0.41
64 | AGAGTACAAGTAAATACACACATATATATGAAAATA [CACACA_site1079] | 8.64 ± 0.3
65 | ATCACATTCCACGGTACACACTAAAAGAAAAATCAG [CACACA_site5907] | 8.68 ± 0.56
66 | ATTTATATTTAATATACACACATTATTTTTTTATAT [CACACA_site574] | 8.53 ± 0.37
67 | TACATAAATACATACACACACATATAACCAATGTAG [CACACA_site5243] | 8.73 ± 0.42
68 | CACATATATACACATACACACACACCCATACACCCA [CACACA_site8505] | 8.77 ± 0.33
69 | TTTACATTTTAGGAAGTGCATATAATAAATACTATC | 8.64 ± 0.12

Row | Sequence | gcPBM binding intensity (ln)
70 | ATATAATATTTTAGAGTGCACCGATAACAATAAATA [GTGCAC_site9754] | 9.4 ± 0.11
71 | TATAATATGACAAGAAGTACATATATTTACATATAT [XGTACX_site1571] | 8.31 ± 0.39
72 | AAAAGATAAAAAGAAGTGCATAATAGGAACAAATAT [GTGCAC_site9717] | 9.35 ± 0.45
73 | CATTTCATTAATAAATGTACTTGTGAAGAGAAAAAG [XGTACX_site3115] | 8.66 ± 0.39
74 | TATATGTGGGTTTTTTTTATGTGTTTTTCTTTTTTT [CACACA_negctrl_site936] | 8.51 ± 0.49
75 | ACAAAATTTACAAAATGTACAAAATATACAAAATGT [XGTACX_site3543] | 8.34 ± 0.43
76 | AATAATAAAATAAAAGTGCATTAATTATAATTCTTT [GTGCAC_site9491] | 8.68 ± 0.085
77 | TTAAATATTTATATTTGTACACAATCAATCATACAC [XGTACX_site5793] | 8.67 ± 0.2
78 | GAGGAAAAAAAAAAAAGTACATTATATAAGAAAATT [XGTACX_site2610] | 8.62 ± 0.33
79 | TCTTTCTAAATCTTACAAATTACTAAAATATTTATA [CACACA_negctrl_site87] | 8.36 ± 0.45
80 | AATTATAATAATAATAGTACATAAGTATATAAATAA [XGTACX_site2400] | 8.46 ± 0.31
81 | TTGGTTTCTTGTTTTTGTACCCATAATTTGTAATAT [XGTACX_site1248] | 9.13 ± 0.5
82 | AAAAAAAAAAAAAAAAGTACAAATTTAAAAATGTGT [XGTACX_site112] | 8.54 ± 0.099
83 | CATAAATACAGTAACACACACAAAAAAATATGAATA [CACACA_site6066] | 8.89 ± 0.49
84 | ATATATATATTATATGCACACTAATAAGACTATTTA [CACACA_site5880] | 9.125 ± 0.021
85 | TGTTTTGTTATTTTTATTTATATAAATAAAGCTATA [GTGCAC_negctrl_site88] | 8.77 ± 0.33
86 | TTGTTATGCATTGGTTGTACATAAGTATAAGTAATT [XGTACX_site5401] | 8.66 ± 0.35
87 | ATATATATATTTTATTGTACAAAAAAAAAAAAAAAA [XGTACX_site6803] | 8.86 ± 0.33
88 | AAAAAAAAAATATGTACACACATATAAAATACATAA [CACACA_site6869] | 8.56 ± 0.3
89 | CCATTATACACAATATGTACATATATATAATCATTT [XGTACX_site7942] | 8.62 ± 0.33
